Measurements as given in the BET-seq Pho4 binding data (Le et al. 2018).
Some of the results follow. These are noisy estimates, calculated here from bound and input reads.

Biological target: T1, Pho4 (S. cerevisiae) (UniProt P07270)
T1 sequence: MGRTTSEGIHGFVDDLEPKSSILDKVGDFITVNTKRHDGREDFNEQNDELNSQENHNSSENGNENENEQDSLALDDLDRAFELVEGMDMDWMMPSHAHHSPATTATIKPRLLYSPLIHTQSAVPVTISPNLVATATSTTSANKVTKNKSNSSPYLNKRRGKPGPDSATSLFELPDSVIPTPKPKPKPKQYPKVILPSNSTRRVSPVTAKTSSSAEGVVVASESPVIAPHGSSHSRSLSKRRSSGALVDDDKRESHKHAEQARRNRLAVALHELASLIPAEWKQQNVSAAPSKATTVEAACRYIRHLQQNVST
Experiment: relative binding free energy (BET-seq); higher = weaker binding
Settings: reference: library average

Sequence | relative binding free energy [kcal/mol]
CGTTTCACGTGGGAAA | 0.19
CGGGGCACGTGCGGGT | -0.17
AGAATCACGTGTTGGC | 0.2
GATAACACGTGTATGT | 0.06
GCATTCACGTGTGTTA | 0.4
TTATGCACGTGGGCCA | -0.13
CTATGCACGTGTGTGT | -0.15
TTGGCCACGTGAAGGG | 0.17
GAGTACACGTGTTCTT | 0.37
AGTATCACGTGTTAAA | 0.15
GTATGCACGTGCGATT | -0.04
AGAAACACGTGGTTTT | 0.04
TGGATCACGTGCGGGA | -0.04
GTCGGCACGTGATGGC | 0.07
TTCATCACGTGTGCTG | 0.13
TTACACACGTGTAGTT | 0.05
TTGAGCACGTGTTATG | -0.06
CGGGACACGTGATGTA | 0.24
GGGGGCACGTGTTCAG | -0.17
TTTAGCACGTGCTGAT | -0.01
CTGGGCACGTGTGATA | -0.12
ATAATCACGTGGTGAA | 0.01
GAGGGCACGTGGAGGG | -0.12

Sequence | relative binding free energy [kcal/mol]
CGGCTCACGTGGCGGG | 0.17
TGAGTCACGTGTATTA | 0.24
AGTCTCACGTGAGGAA | 0.53
AACTGCACGTGGGTTT | -0.06
CGAGTCACGTGTGGTG | 0.22
AGCAGCACGTGAGGGT | 0.02
CGTTGCACGTGTACGT | 0.05
TCGCGCACGTGGGGGG | -0.28
ATAAGCACGTGTTTGA | -0.04
CGATACACGTGTTTAT | 0.19
TGCGTCACGTGTAGAT | 0.15
GGGGGCACGTGTACCG | -0.16
GATTACACGTGATATT | 0.28
ATGTACACGTGTGTGG | 0.11
GAATCCACGTGTGGTT | 0.19
AGATCCACGTGGGTTA | -0.01
TCAGACACGTGGTGTG | -0.05
AGGGGCACGTGTTTGC | -0.18
TAATTCACGTGTGAGG | 0.34
AATAGCACGTGCGTTT | -0.08
TGGTCCACGTGTGTTG | 0.03
GACATCACGTGTGTGT | 0.13
AAATTCACGTGTCATG | 0.39

Sequence | relative binding free energy [kcal/mol]
GTTAGCACGTGGGGAC | -0.14
GGAGGCACGTGGGTAT | -0.09
GATAGCACGTGGAAGT | 0.14
CGGTACACGTGGTAGA | -0.04
CGGTACACGTGAGTTT | 0.44
TCTTACACGTGCGGGG | -0.05
CGTATCACGTGGGTTT | -0.05
CTGGGCACGTGGTGGC | -0.07
TGGTACACGTGGGTCG | -0.08
ATACGCACGTGTTGGG | -0.19
ATTCACACGTGTTTAG | 0.1
GTTCTCACGTGGCGGT | 0.27
ATTGGCACGTGGGCTA | -0.17
ACTTTCACGTGTAGGG | 0.23
ATGGGCACGTGATTTC | -0.02
TGTATCACGTGCAGAT | 0.18
AATAGCACGTGCGTGT | -0.26
ATCGTCACGTGTATTT | 0.19
ACTTTCACGTGGGGTA | 0.01
TGTGACACGTGCCGGG | -0.17
GTGTGCACGTGTGAAC | 0.06
GTGGACACGTGGGCTG | -0.06
ATCTACACGTGTAGTG | 0.07

Sequence | relative binding free energy [kcal/mol]
ACTGGCACGTGTAGAG | -0.01
GGCTGCACGTGTTGTG | -0.04
TATAGCACGTGAGCGT | 0.18
CAGGGCACGTGAGAGG | 0.09
ATGTTCACGTGGTTCG | 0.35
TGTTTCACGTGCGGTC | 0.29
CGTGGCACGTGGAATA | 0.01
ATGATCACGTGGCTTT | -0.09
AAAGTCACGTGAATTT | 0.36
AGGGTCACGTGGGGGA | -0.03
ATACTCACGTGTGTGA | 0.22
GTGGGCACGTGGCGTA | -0.12
CGGGACACGTGTTTGT | -0.05
CAGATCACGTGTGTTT | 0.22
ACTGCCACGTGGAGGG | 0
GTTTGCACGTGTCATG | 0
ATGGGCACGTGAGGAT | 0.2
GAAGGCACGTGATAAG | 0.08
TTAATCACGTGCTGCT | 0.09
GTAGGCACGTGGGAAA | -0.15
ATCTTCACGTGAGATT | 0.53
GCTGACACGTGTTGTT | 0
GGGAGCACGTGGCTTG | -0.25

Sequence | relative binding free energy [kcal/mol]
ATGATCACGTGTCGTT | 0.15
TGGTTCACGTGGTGGA | 0.29
TGAGGCACGTGTTAAG | 0
AATTACACGTGTCGTG | -0.04
TGTTCCACGTGGGTGC | 0.07
CAAGGCACGTGATGGT | -0.05
GGTGACACGTGGTTCG | 0.05
TATGGCACGTGATGTA | -0.08
GTCGACACGTGTTAGG | 0.09
GGCGGCACGTGAGTGG | 0.09
CGTTTCACGTGGTCGG | 0.14
TTCAGCACGTGGAGAG | -0.01
CGGGACACGTGTTTTG | 0.03
GTATTCACGTGGACTT | 0.33
ATTTTCACGTGCGTTC | 0.19
TTTAGCACGTGTAGCG | 0.02
GTCATCACGTGAGGAT | 0.6
CTGCGCACGTGTGGTG | -0.23
TGGATCACGTGGTTAA | 0.04
GTTATCACGTGGATGA | 0.22
GGGTACACGTGGTTTT | 0.1
AGGGGCACGTGTAGCG | 0.06
TTAGTCACGTGAAATT | 0.4
